Data reported in the supplement of paper PMC8728848.
Some of the results follow.

Columns and labels:
Test in all cases: glycan array binding signal (z-score within array); higher = stronger binding
Details in all cases: glycan notation: IUPAC condensed, linker removed
[1] = biological target: Gal(a1-3)[Gal(a1-4)]Gal(b1-4)GlcNAc
Procedure, shortened: (§1)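 Glycan array data came from 3228 arrays in the Consortium for Functional Glycomics database, and only arrays with an available protein sequence were kept. Glycan names were put into IUPAC-condensed notation, and columns mapping to the same glycan were averaged. The binding signal is a within-array Z-score, averaged across arrays of one protein sequence run at different concentrations or buffers and across linkers. A negative Z-score can be read as non-binding.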

[2] = biological target: Gal(a1-4)Gal(b1-3)GlcNAc(b1-2)Man(a1-3)[Gal(a1-4)Gal(b1-3)GlcNAc(b1-2)Man(a1-6)]Man(b1-4)GlcNAc(b1-4)GlcNAc
Procedure, shortened: as §1

[3] = biological target: Gal(a1-4)Gal(b1-4)Glc
Procedure, shortened: as §1

[4] = biological target: Gal(a1-4)Gal(b1-4)GlcNAc
Procedure, shortened: as §1

[5] = biological target: Gal(a1-4)Gal(b1-4)GlcNAc(b1-2)Man(a1-3)[Gal(a1-4)Gal(b1-4)GlcNAc(b1-2)Man(a1-6)]Man(b1-4)GlcNAc(b1-4)GlcNAc
Procedure, shortened: as §1

[6] = biological target: Gal(a1-4)Gal(b1-4)GlcNAc(b1-3)Gal(b1-4)Glc
Procedure, shortened: as §1

[7] = biological target: Gal(a1-4)GlcNAc
Procedure, shortened: as §1

[8] = biological target: Gal(a1-6)Glc
Procedure, shortened: as §1

[9] = biological target: Gal(b1-2)Gal
Procedure, shortened: as §1

[10] = biological target: Gal(b1-3)Gal
Procedure, shortened: as §1

[11] = biological target: Gal(b1-3)Gal(b1-4)GlcNAc
Procedure, shortened: as §1

[12] = biological target: Gal(b1-3)GalNAc
Procedure, shortened: as §1

[13] = biological target: Gal(b1-3)GalNAc(a1-3)[Fuc(a1-2)]Gal(b1-4)Glc
Procedure, shortened: as §1

[14] = biological target: Gal(b1-3)GalNAc(a1-3)[Fuc(a1-2)]Gal(b1-4)GlcNAc
Procedure, shortened: as §1

[15] = biological target: Gal(b1-3)GalNAc(b1-3)Gal
Procedure, shortened: as §1

[16] = biological target: Gal(b1-3)GalNAc(b1-3)Gal(a1-4)Gal(b1-4)Glc
Procedure, shortened: as §1

[17] = biological target: Gal(b1-3)GalNAc(b1-4)Gal(b1-4)Glc
Procedure, shortened: as §1

[18] = biological target: Gal(b1-3)GalNAc(b1-4)[Neu5Ac(a2-3)]Gal(b1-4)Glc
Procedure, shortened: as §1

[19] = biological target: Gal(b1-3)GlcNAc
Procedure, shortened: as §1

[20] = biological target: Gal(b1-3)GlcNAc(a1-3)Gal(b1-4)GlcNAc
Procedure, shortened: as §1

[21] = biological target: Gal(b1-3)GlcNAc(a1-6)Gal(b1-4)GlcNAc
Procedure, shortened: as §1

[22] = biological target: Gal(b1-3)GlcNAc(b1-2)Man
Procedure, shortened: as §1

[23] = biological target: Gal(b1-3)GlcNAc(b1-2)Man(a1-3)[Gal(b1-3)GlcNAc(b1-2)Man(a1-6)]Man(b1-4)GlcNAc(b1-4)GlcNAc
Procedure, shortened: as §1

[24] = biological target: Gal(b1-3)GlcNAc(b1-2)Man(a1-3)[Gal(b1-3)GlcNAc(b1-2)Man(a1-6)]Man(b1-4)GlcNAc(b1-4)[Fuc(a1-6)]GlcNAc
Procedure, shortened: as §1

[25] = biological target: Gal(b1-3)GlcNAc(b1-2)Man(a1-3)[GlcNAc(b1-4)][Gal(b1-3)GlcNAc(b1-2)Man(a1-6)]Man(b1-4)GlcNAc(b1-4)GlcNAc
Procedure, shortened: as §1

[26] = biological target: Gal(b1-3)GlcNAc(b1-2)[Gal(b1-3)GlcNAc(b1-6)]Man(a1-6)[Gal(b1-3)GlcNAc(b1-2)Man(a1-3)]Man(b1-4)GlcNAc(b1-4)GlcNAc
Procedure, shortened: as §1

[27] = biological target: Gal(b1-3)GlcNAc(b1-3)Gal(b1-3)GlcNAc
Procedure, shortened: as §1

[28] = biological target: Gal(b1-3)GlcNAc(b1-3)Gal(b1-4)Glc
Procedure, shortened: as §1

[29] = biological target: Gal(b1-3)GlcNAc(b1-3)Gal(b1-4)GlcNAc
Procedure, shortened: as §1

[30] = biological target: Gal(b1-3)GlcNAc(b1-3)Gal(b1-4)GlcNAc(b1-2)Man(a1-3)[Gal(b1-3)GlcNAc(b1-3)Gal(b1-4)GlcNAc(b1-2)Man(a1-6)]Man(b1-4)GlcNAc(b1-4)GlcNAc
Procedure, shortened: as §1

[31] = biological target: Gal(b1-3)GlcNAc(b1-3)Gal(b1-4)GlcNAc(b1-2)[Gal(b1-3)GlcNAc(b1-3)Gal(b1-4)GlcNAc(b1-6)]Man(a1-6)[Gal(b1-3)GlcNAc(b1-3)Gal(b1-4)GlcNAc(b1-2)Man(a1-3)]Man(b1-4)GlcNAc(b1-4)[Fuc(a1-6)]GlcNAc
Procedure, shortened: as §1

[32] = biological target: Gal(b1-3)GlcNAc(b1-3)Gal(b1-4)GlcNAc(b1-3)Gal(b1-4)GlcNAc(b1-2)[Gal(b1-3)GlcNAc(b1-3)Gal(b1-4)GlcNAc(b1-3)Gal(b1-4)GlcNAc(b1-6)]Man(a1-6)[Gal(b1-3)GlcNAc(b1-3)Gal(b1-4)GlcNAc(b1-3)Gal(b1-4)GlcNAc(b1-2)Man(a1-3)]Man(b1-4)GlcNAc(b1-4)[Fuc(a1-6)]GlcNAc
Procedure, shortened: as §1

[33] = biological target: Gal(b1-3)GlcNAc(b1-3)Gal(b1-4)GlcNAc(b1-6)[Gal(b1-3)GlcNAc(b1-3)]Gal(b1-4)Glc
Procedure, shortened: as §1

[34] = biological target: Gal(b1-3)GlcNAc(b1-3)Gal(b1-4)[Fuc(a1-3)]GlcNAc
Procedure, shortened: as §1

[35] = biological target: Gal(b1-3)GlcNAc(b1-3)Gal(b1-4)[Fuc(a1-3)]GlcNAc(b1-6)[Gal(b1-3)GlcNAc(b1-3)]Gal(b1-4)Glc
Procedure, shortened: as §1

[36] = biological target: Gal(b1-3)GlcNAc(b1-3)GalNAc
Procedure, shortened: as §1

[37] = biological target: Gal(b1-3)GlcNAc(b1-6)Gal(b1-4)GlcNAc
Procedure, shortened: as §1

[38] = biological target: Gal(b1-3)GlcNAc(b1-6)GalNAc
Procedure, shortened: as §1

B1: Cohesin-hDECTIN-1 (Homo sapiens) (protein)
chain: LDITSHHHHHHDDLDAVRIKVDTVNAKPGDTVRIPVRFSGIPSKGIANCDFVYSYDPNVLEIIEIEPGDIIVDPNPDKSFDTAVYPDRKIIVFLFAEDSGTGAYAITKDGVFATIVAKVKEGAPNGLSVIKFVEVGGFANNDLVEQKTQFFDGGVNVGDTTEPATPTTPVTTPTTTDDLDAASSSPCPPNWIIYEKSCYLFSMSLNSWDGSKRQCWQLGSNLLKIDSSNELGFIVKQVSSQPDNSFWIGLSRPQTEVPWLWEDGSTFSSNLFQIRTTATQENPSPNCVWIHVSVIYDQLCSVPSYSICEKKFM
- glycan array binding signal (z-score) [1]: -0.425
- glycan array binding signal (z-score) [2]: -0.209
- glycan array binding signal (z-score) [3]: -0.217
- glycan array binding signal (z-score) [4]: -0.392
- glycan array binding signal (z-score) [5]: -0.363
- glycan array binding signal (z-score) [6]: -0.344
- glycan array binding signal (z-score) [7]: 0.417
- glycan array binding signal (z-score) [8]: 0.922
- glycan array binding signal (z-score) [9]: 0.385
- glycan array binding signal (z-score) [10]: -0.474
- glycan array binding signal (z-score) [11]: -0.493
- glycan array binding signal (z-score) [12]: -0.336
- glycan array binding signal (z-score) [13]: -0.171
- glycan array binding signal (z-score) [14]: -0.395
- glycan array binding signal (z-score) [15]: -0.475
- glycan array binding signal (z-score) [16]: 0.075
- glycan array binding signal (z-score) [17]: -0.439
- glycan array binding signal (z-score) [18]: -0.371
- glycan array binding signal (z-score) [19]: -0.169
- glycan array binding signal (z-score) [20]: -0.517
- glycan array binding signal (z-score) [21]: 0.072
- glycan array binding signal (z-score) [22]: -0.46
- glycan array binding signal (z-score) [23]: -0.51
- glycan array binding signal (z-score) [24]: -0.176
- glycan array binding signal (z-score) [25]: -0.248
- glycan array binding signal (z-score) [26]: -0.531
- glycan array binding signal (z-score) [27]: -0.404
- glycan array binding signal (z-score) [28]: -0.403
- glycan array binding signal (z-score) [29]: -0.464
- glycan array binding signal (z-score) [30]: 0.321
- glycan array binding signal (z-score) [31]: -0.221
- glycan array binding signal (z-score) [32]: 0.097
- glycan array binding signal (z-score) [33]: -0.595
- glycan array binding signal (z-score) [34]: -0.431
- glycan array binding signal (z-score) [35]: -0.496
- glycan array binding signal (z-score) [36]: -0.392
- glycan array binding signal (z-score) [37]: -0.213
- glycan array binding signal (z-score) [38]: 6.01
